# Measurements taken from the supplement of paper PMC8728848.
# The other results are listed elsewhere or left out.
# Assays:
# Assay in all cases: glycan array binding signal (z-score within array); higher = stronger binding
# Conditions in all cases: glycan notation: IUPAC condensed, linker removed
# [1] = molecular target: Fuc(a1-2)Gal(b1-4)[Fuc(a1-3)]GlcNAc
# Method in brief: (§1)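 The Consortium for Functional Glycomics database supplied 3228 glycan arrays, of which those lacking an available protein sequence were dropped. The binding signal, a within-array Z-score, was averaged across arrays of the same protein sequence and across linkers. Negative scores can be read as non-binding.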
# [2] = molecular target: Fuc(a1-2)Gal(b1-4)[Fuc(a1-3)]GlcNAc(b1-2)Man(a1-3)[Fuc(a1-2)Gal(b1-4)[Fuc(a1-3)]GlcNAc(b1-2)Man(a1-6)]Man(b1-4)GlcNAc(b1-4)GlcNAc
# Method in brief: as §1
# [3] = molecular target: Fuc(a1-2)Gal(b1-4)[Fuc(a1-3)]GlcNAc(b1-2)[Fuc(a1-2)Gal(b1-4)[Fuc(a1-3)]GlcNAc(b1-4)]Man(a1-3)[Fuc(a1-2)Gal(b1-4)[Fuc(a1-3)]GlcNAc(b1-2)Man(a1-6)]Man(b1-4)GlcNAc(b1-4)GlcNAc
# Method in brief: as §1
# [4] = molecular target: Fuc(a1-2)Gal(b1-4)[Fuc(a1-3)]GlcNAc(b1-3)Gal(b1-4)[Fuc(a1-3)]GlcNAc
# Method in brief: as §1
# [5] = molecular target: Fuc(a1-2)Gal(b1-4)[Fuc(a1-3)]GlcNAc(b1-3)Gal(b1-4)[Fuc(a1-3)]GlcNAc(b1-3)Gal(b1-4)[Fuc(a1-3)]GlcNAc
# Method in brief: as §1
# [6] = molecular target: Fuc(a1-2)Gal(b1-4)[Fuc(a1-3)]GlcNAc(b1-3)GalNAc
# Method in brief: as §1
# Fuc(a1-2)Gal6S(b1-4)Glc = molecular target: Fuc(a1-2)Gal6S(b1-4)Glc
# Method in brief: as §1
# [7] = molecular target: Fuc(a1-2)Gal6S(b1-4)Glc6S
# Method in brief: as §1
# [8] = molecular target: Fuc(a1-2)Gal6S(b1-4)GlcNAc
# Method in brief: as §1
# Fuc(a1-2)[Gal(a1-3)]Gal = molecular target: Fuc(a1-2)[Gal(a1-3)]Gal
# Method in brief: as §1
# [9] = molecular target: Fuc(a1-2)[Gal(a1-3)]Gal(b1-3)GalNAc
# Method in brief: as §1
# [10] = molecular target: Fuc(a1-2)[Gal(a1-3)]Gal(b1-3)GlcNAc
# Method in brief: as §1
# [11] = molecular target: Fuc(a1-2)[Gal(a1-3)]Gal(b1-3)GlcNAc(b1-2)Man(a1-3)[Fuc(a1-2)[Gal(a1-3)]Gal(b1-3)GlcNAc(b1-2)Man(a1-6)]Man(b1-4)GlcNAc(b1-4)GlcNAc
# Method in brief: as §1
# [12] = molecular target: Fuc(a1-2)[Gal(a1-3)]Gal(b1-3)GlcNAc(b1-2)Man(a1-3)[Fuc(a1-2)[Gal(a1-3)]Gal(b1-3)GlcNAc(b1-2)Man(a1-6)]Man(b1-4)GlcNAc(b1-4)[Fuc(a1-6)]GlcNAc
# Method in brief: as §1
# [13] = molecular target: Fuc(a1-2)[Gal(a1-3)]Gal(b1-3)GlcNAc(b1-3)GalNAc
# Method in brief: as §1
# [14] = molecular target: Fuc(a1-2)[Gal(a1-3)]Gal(b1-4)Glc
# Method in brief: as §1
# [15] = molecular target: Fuc(a1-2)[Gal(a1-3)]Gal(b1-4)GlcNAc
# Method in brief: as §1
# [16] = molecular target: Fuc(a1-2)[Gal(a1-3)]Gal(b1-4)GlcNAc(b1-2)Man(a1-3)[Fuc(a1-2)[Gal(a1-3)]Gal(b1-4)GlcNAc(b1-2)Man(a1-6)]Man(b1-4)GlcNAc(b1-4)GlcNAc
# Method in brief: as §1
# [17] = molecular target: Fuc(a1-2)[Gal(a1-3)]Gal(b1-4)GlcNAc(b1-2)Man(a1-3)[Fuc(a1-2)[Gal(a1-3)]Gal(b1-4)GlcNAc(b1-2)Man(a1-6)]Man(b1-4)GlcNAc(b1-4)[Fuc(a1-6)]GlcNAc
# Method in brief: as §1
# [18] = molecular target: Fuc(a1-2)[Gal(a1-3)]Gal(b1-4)GlcNAc(b1-3)GalNAc
# Method in brief: as §1
# [19] = molecular target: Fuc(a1-2)[Gal(a1-3)]Gal(b1-4)[Fuc(a1-3)]Glc
# Method in brief: as §1
# [20] = molecular target: Fuc(a1-2)[Gal(a1-3)]Gal(b1-4)[Fuc(a1-3)]GlcNAc
# Method in brief: as §1
# [21] = molecular target: Fuc(a1-2)[Gal(a1-3)]Gal(b1-4)[Fuc(a1-3)]GlcNAc(b1-3)GalNAc
# Method in brief: as §1
# [22] = molecular target: Fuc(a1-2)[Gal(a1-4)]Gal(b1-4)GlcNAc
# Method in brief: as §1
# [23] = molecular target: Fuc(a1-2)[GalNAc(a1-3)]Gal
# Method in brief: as §1
# [24] = molecular target: Fuc(a1-2)[GalNAc(a1-3)]Gal(b1-3)GalNAc(a1-3)[Fuc(a1-2)]Gal(b1-4)GlcNAc
# Method in brief: as §1
# [25] = molecular target: Fuc(a1-2)[GalNAc(a1-3)]Gal(b1-3)GlcNAc
# Method in brief: as §1
# [26] = molecular target: Fuc(a1-2)[GalNAc(a1-3)]Gal(b1-3)GlcNAc(b1-2)Man(a1-3)[Fuc(a1-2)[GalNAc(a1-3)]Gal(b1-3)GlcNAc(b1-2)Man(a1-6)]Man(b1-4)GlcNAc(b1-4)GlcNAc
# Method in brief: as §1
# [27] = molecular target: Fuc(a1-2)[GalNAc(a1-3)]Gal(b1-3)GlcNAc(b1-2)Man(a1-3)[Fuc(a1-2)[GalNAc(a1-3)]Gal(b1-3)GlcNAc(b1-2)Man(a1-6)]Man(b1-4)GlcNAc(b1-4)[Fuc(a1-6)]GlcNAc
# Method in brief: as §1
# [28] = molecular target: Fuc(a1-2)[GalNAc(a1-3)]Gal(b1-3)GlcNAc(b1-3)GalNAc
# Method in brief: as §1
binder,measurement,setting,value
"GNAT (Pseudomonas aeruginosa), Q9HV14 (protein) MQLSHRPAETGDLETVAGFPQDRDELFYCYPKAIWPFSVAQLAAAIAERRGSTVAVHDGQVLGFANFYQWQHGDFCALGNMMVAPAARGLGVARYLIGVMENLAREQYKARLMKISCFNANAAGLLLYTQLGYQPRAIAERHDPDGRRVALIQMDKPLEP",glycan array binding signal (z-score),[1],-0.324
same,glycan array binding signal (z-score),[2],3.5
same,glycan array binding signal (z-score),[3],2.59
same,glycan array binding signal (z-score),[4],-0.293
same,glycan array binding signal (z-score),[5],-0.411
same,glycan array binding signal (z-score),[6],4.04
same,glycan array binding signal (z-score),Fuc(a1-2)Gal6S(b1-4)Glc,-0.374
same,glycan array binding signal (z-score),[7],-0.325
same,glycan array binding signal (z-score),[8],-0.434
same,glycan array binding signal (z-score),Fuc(a1-2)[Gal(a1-3)]Gal,-0.448
same,glycan array binding signal (z-score),[9],-0.312
same,glycan array binding signal (z-score),[10],-0.312
same,glycan array binding signal (z-score),[11],-0.404
same,glycan array binding signal (z-score),[12],-0.374
same,glycan array binding signal (z-score),[13],-0.379
same,glycan array binding signal (z-score),[14],-0.398
same,glycan array binding signal (z-score),[15],-0.452
same,glycan array binding signal (z-score),[16],-0.485
same,glycan array binding signal (z-score),[17],-0.442
same,glycan array binding signal (z-score),[18],-0.398
same,glycan array binding signal (z-score),[19],-0.469
same,glycan array binding signal (z-score),[20],2.64
same,glycan array binding signal (z-score),[21],1.12
same,glycan array binding signal (z-score),[22],-0.398
same,glycan array binding signal (z-score),[23],-0.309
same,glycan array binding signal (z-score),[24],-0.345
same,glycan array binding signal (z-score),[25],-0.353
same,glycan array binding signal (z-score),[26],-0.408
same,glycan array binding signal (z-score),[27],-0.26
same,glycan array binding signal (z-score),[28],5.4
